The values that follow come from US11000038B2, “Pyridone compounds and agricultural and horticultural fungicides containing the same as active ingredients” (priority 2017, dated 2021).

Structures are written as SMILES.

Assay [1] concerns rice blast fungi (Magnaporthe grisea). It counts as in vivo. Particulars: rice blast, spray treatment.
Assay [2] has as its system tomato late blight fungi (Phytophthora infestans). It counts as in vivo. Particulars: tomato late blight, spray treatment.
Assay [3] deals with cucumber anthracnose fungi (Colletotrichum orbiculare). The experiment in a line: Test Example H: cucumber anthracnose, spray treatment of cucumber plants. The following applies: cucumber anthracnose, 250 ppm spray, 6 to 10 days after inoculation.

Turning to `CCc1c(-c2ccccc2)n(-c2ccccc2Cl)cc(Br)c1=O` [Compound 535], the “Test A control value” in assay [1] was “L (L shows the control value of 50% or less)”. For the same molecule, the “Test F control value” in assay [2] is recorded as “L (L shows the control value of 50% or less)”. Further, in assay [3], the “Test H control value” is reported as “H (H shows the control value of more than 50%)”.
For `CCc1c(-c2c(F)cccc2F)n(-c2cc(Cl)ccc2C)cc(C)c1=O` [Compound 536], the “Test A control value” in assay [1] is on record as “L (L shows the control value of 50% or less)”. In assay [2], the “Test F control value” is reported as “L (L shows the control value of 50% or less)”. In addition, the “Test H control value” in assay [3] is “H (H shows the control value of more than 50%)”.
As for `Cc1cn(-c2ccccc2)c(-c2ccccc2)c(C)c1=O` [Compound 537], the “Test A control value” in assay [1] is recorded as “L (L shows the control value of 50% or less)”. Also, the “Test F control value” in assay [2] is “H (H shows the control value of more than 50%)”. The “Test H control value” in assay [3] is “L (L shows the control value of 50% or less)”.
For the molecule `CCc1c(-c2ccccc2)n(-c2ccccc2Cl)cc(C)c1=O` [Compound 538], the “Test A control value” in assay [1] was “L (L shows the control value of 50% or less)”. The “Test F control value” in assay [2] is given as “L (L shows the control value of 50% or less)”. The “Test H control value” in assay [3] is recorded as “H (H shows the control value of more than 50%)”.
As to `CCc1c(-c2c(F)cccc2F)n(-c2cc(C)ccc2C)cc(Br)c1=O` [Compound 539], in assay [1], the “Test A control value” is listed as “L (L shows the control value of 50% or less)”. For the same molecule, the “Test F control value” in assay [2] is “L (L shows the control value of 50% or less)”. For the same molecule, the “Test H control value” in assay [3] is reported as “H (H shows the control value of more than 50%)”.
`CCc1c(-c2c(F)cccc2F)n(-c2cc(C)ccc2C)cc(C)c1=O` [Compound 540]: in assay [1], the “Test A control value” is recorded as “L (L shows the control value of 50% or less)”. Also, in assay [2], the “Test F control value” is recorded as “L (L shows the control value of 50% or less)”. Also, in assay [3], the “Test H control value” is listed as “H (H shows the control value of more than 50%)”.
Turning to `CCc1c(-c2c(F)cccc2F)n(-c2cc(F)ccc2C)cc(Br)c1=O` [Compound 541], the “Test A control value” in assay [1] was “L (L shows the control value of 50% or less)”. Besides, in assay [2], the “Test F control value” is “L (L shows the control value of 50% or less)”. In assay [3], the “Test H control value” is listed as “L (L shows the control value of 50% or less)”.
For `CCc1c(-c2c(F)cccc2F)n(-c2cc(F)ccc2C)cc(C)c1=O` [Compound 542], in assay [1], the “Test A control value” is listed as “L (L shows the control value of 50% or less)”. In assay [2], the “Test F control value” is given as “L (L shows the control value of 50% or less)”. In addition, the “Test H control value” in assay [3] is on record as “L (L shows the control value of 50% or less)”.
`CCc1c(-c2ccccc2)n(-c2cc(OC)ccc2C)cc(C)c1=O` [Compound 543]: the “Test A control value” in assay [1] is “H (H shows the control value of more than 50%)”. For the same molecule, the “Test F control value” in assay [2] is on record as “L (L shows the control value of 50% or less)”. Moreover, the “Test H control value” in assay [3] is recorded as “H (H shows the control value of more than 50%)”.
`CCc1c(-c2ccccc2)n(-c2cccc(F)c2C)cc(C)c1=O` [Compound 544]: the “Test A control value” in assay [1] is “L (L shows the control value of 50% or less)”. Moreover, the “Test F control value” in assay [2] is on record as “H (H shows the control value of more than 50%)”. Moreover, the “Test H control value” in assay [3] is on record as “H (H shows the control value of more than 50%)”.
Turning to `CCc1c(-c2ccccc2)n(-c2cccc(Cl)c2C)cc(C)c1=O` [Compound 545], the “Test A control value” in assay [1] is on record as “L (L shows the control value of 50% or less)”. The “Test F control value” in assay [2] is listed as “L (L shows the control value of 50% or less)”. The “Test H control value” in assay [3] is recorded as “H (H shows the control value of more than 50%)”.
With `COc1cccc(-n2cc(C)c(=O)c(C)c2-c2ccccc2)c1C` [Compound 546], the “Test A control value” in assay [1] is recorded as “H (H shows the control value of more than 50%)”. The “Test F control value” in assay [2] is listed as “L (L shows the control value of 50% or less)”. Further, in assay [3], the “Test H control value” is on record as “H (H shows the control value of more than 50%)”.
Take `CCc1c(-c2c(F)cc(F)cc2F)n(-c2cccc(Cl)c2C)cc(C)c1=O` [Compound 547]: the “Test A control value” in assay [1] was “H (H shows the control value of more than 50%)”. The “Test F control value” in assay [2] is listed as “L (L shows the control value of 50% or less)”. Further, the “Test H control value” in assay [3] is on record as “H (H shows the control value of more than 50%)”.
For the molecule `CCc1c(-c2c(F)cc(F)cc2F)n(-c2cccc(Br)c2C)cc(Br)c1=O` [Compound 548], the “Test A control value” in assay [1] is “H (H shows the control value of more than 50%)”. In addition, the “Test F control value” in assay [2] is “L (L shows the control value of 50% or less)”. In addition, in assay [3], the “Test H control value” was “H (H shows the control value of more than 50%)”.
For `CCc1c(-c2c(F)cccc2F)n(-c2cccc(OC)c2C)cc(Br)c1=O` [Compound 549], the “Test A control value” in assay [1] is “L (L shows the control value of 50% or less)”. Also, in assay [2], the “Test F control value” was “H (H shows the control value of more than 50%)”. Moreover, in assay [3], the “Test H control value” is listed as “H (H shows the control value of more than 50%)”.
In the case of `CCc1c(-c2c(F)cccc2F)n(-c2cccc(F)c2C)cc(Br)c1=O` [Compound 550], in assay [1], the “Test A control value” is on record as “H (H shows the control value of more than 50%)”. For the same molecule, the “Test F control value” in assay [2] is on record as “L (L shows the control value of 50% or less)”. Moreover, the “Test H control value” in assay [3] is given as “H (H shows the control value of more than 50%)”.
Take `CCc1c(-c2c(F)cccc2F)n(-c2cccc(OC)c2C)cc(C)c1=O` [Compound 551]: in assay [1], the “Test A control value” is “H (H shows the control value of more than 50%)”. Further, the “Test F control value” in assay [2] was “H (H shows the control value of more than 50%)”. Besides, the “Test H control value” in assay [3] was “H (H shows the control value of more than 50%)”.
As for `CCc1c(-c2c(F)cccc2F)n(-c2cccc(F)c2C)cc(C)c1=O` [Compound 552], the “Test A control value” in assay [1] is “H (H shows the control value of more than 50%)”. Also, in assay [2], the “Test F control value” is on record as “L (L shows the control value of 50% or less)”. The “Test H control value” in assay [3] is “H (H shows the control value of more than 50%)”.
As to `CCc1c(-c2ccccc2)n(-c2cc(Cl)ccc2C)cc(Br)c1=O` [Compound 553], the “Test A control value” in assay [1] is reported as “L (L shows the control value of 50% or less)”. The “Test F control value” in assay [2] is “L (L shows the control value of 50% or less)”. Also, the “Test H control value” in assay [3] was “L (L shows the control value of 50% or less)”.
Take `CCc1c(-c2c(F)cc(F)cc2F)n(-c2cccc(F)c2C)cc(C)c1=O` [Compound 554]: in assay [1], the “Test A control value” is reported as “H (H shows the control value of more than 50%)”. Also, the “Test F control value” in assay [2] is listed as “H (H shows the control value of more than 50%)”. In addition, the “Test H control value” in assay [3] was “H (H shows the control value of more than 50%)”.
In the case of `CCc1c(-c2c(F)cccc2F)n(-c2ccccc2)cc(C)c1=O` [Compound 555], in assay [1], the “Test A control value” is given as “H (H shows the control value of more than 50%)”. Besides, the “Test F control value” in assay [2] was “H (H shows the control value of more than 50%)”. For the same molecule, in assay [3], the “Test H control value” is listed as “H (H shows the control value of more than 50%)”.
For `CCc1c(-c2c(F)cc(F)cc2F)n(-c2cc(Cl)ccc2C)cc(Br)c1=O` [Compound 556], the “Test A control value” in assay [1] was “H (H shows the control value of more than 50%)”. The “Test F control value” in assay [2] was “H (H shows the control value of more than 50%)”. In addition, the “Test H control value” in assay [3] is “H (H shows the control value of more than 50%)”.
For the molecule `CCc1c(-c2ccccc2)n(-c2ccccc2)cc(Br)c1=O` [Compound 557], the “Test A control value” in assay [1] is “L (L shows the control value of 50% or less)”. Also, the “Test F control value” in assay [2] was “L (L shows the control value of 50% or less)”. Moreover, the “Test H control value” in assay [3] is given as “H (H shows the control value of more than 50%)”.
In the case of `CCc1c(-c2c(F)cccc2F)n(-c2cc(OC)ccc2C)cc(Br)c1=O` [Compound 558], in assay [1], the “Test A control value” was “H (H shows the control value of more than 50%)”. Also, in assay [2], the “Test F control value” is “H (H shows the control value of more than 50%)”. Further, the “Test H control value” in assay [3] is listed as “H (H shows the control value of more than 50%)”.
For the molecule `CCc1c(-c2ccccc2)n(-c2ccccc2)cc(C)c1=O` [Compound 559], the “Test A control value” in assay [1] is on record as “L (L shows the control value of 50% or less)”. For the same molecule, the “Test F control value” in assay [2] is on record as “L (L shows the control value of 50% or less)”. Further, the “Test H control value” in assay [3] is on record as “H (H shows the control value of more than 50%)”.
With `CCc1c(-c2c(F)cccc2F)n(-c2cc(OC)ccc2C)cc(C)c1=O` [Compound 560], the “Test A control value” in assay [1] is reported as “H (H shows the control value of more than 50%)”. The “Test F control value” in assay [2] was “L (L shows the control value of 50% or less)”. The “Test H control value” in assay [3] is “H (H shows the control value of more than 50%)”.
On to `CCc1c(-c2c(F)cccc2F)n(-c2cc(Br)ccc2C)cc(Br)c1=O` [Compound 561], for which the “Test A control value” in assay [1] is listed as “H (H shows the control value of more than 50%)”. Besides, in assay [2], the “Test F control value” is recorded as “L (L shows the control value of 50% or less)”. Moreover, in assay [3], the “Test H control value” is “H (H shows the control value of more than 50%)”.
With `CCc1c(-c2ccccc2)n(-c2cccc(OC)c2C)cc(Br)c1=O` [Compound 562], in assay [1], the “Test A control value” was “L (L shows the control value of 50% or less)”. Also, the “Test F control value” in assay [2] is recorded as “L (L shows the control value of 50% or less)”. For the same molecule, the “Test H control value” in assay [3] is on record as “L (L shows the control value of 50% or less)”.
`CCc1c(-c2ccccc2)n(-c2cccc(OC)c2C)cc(C)c1=O` [Compound 563]: in assay [1], the “Test A control value” is recorded as “H (H shows the control value of more than 50%)”. In addition, the “Test F control value” in assay [2] is reported as “L (L shows the control value of 50% or less)”. In addition, in assay [3], the “Test H control value” is given as “H (H shows the control value of more than 50%)”.
On to `CCc1c(-c2ccccc2)n(-c2cc(F)ccc2C)cc(Br)c1=O` [Compound 564], for which the “Test A control value” in assay [1] is on record as “L (L shows the control value of 50% or less)”. Further, the “Test F control value” in assay [2] is “L (L shows the control value of 50% or less)”. For the same molecule, in assay [3], the “Test H control value” is recorded as “H (H shows the control value of more than 50%)”.
